Results published in PubChem BioAssay AID995 (National Center for Advancing Translational Sciences (NCATS), 2007).
Among all 72,000 compounds or so, about 710 (0.99%) were called active. Inconclusive means that the source gave no clear call. Such entries were picked first, then a sample of the others. Calls follow the shape of the dose curve; as a rule, active = well fitted inhibition curve with a large enough effect; inconclusive = small, poorly fitted or top-dose-only effect; inactive = no such curve, though single readings can be large or run the other way. Potencies of inconclusive entries are left out as doubtful fits.

Assay: qHTS Assay for Inhibitors of the ERK Signaling Pathway using a Homogeneous Screening Assay; also: nearly all actives have a fitted effect of over 55% in size
Conditions: HEK293-V1b, vasopressin-stimulated pERK AlphaScreen; activity, negative = inhibition: at 57.5 µM (top of the series) unless noted
Summary of the method: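 HEK293 cells stably expressing V1b receptor, preincubated 30 min at 37 °C with compound, then stimulated 5 min with 25 nM vasopressin. Phospho-ERK by AlphaScreen SureFire after 5 h RT; normalized to DMSO and vasopressin; AC50 by Hill fit.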
% is scaled to controls: 0 for no effect and ±100 for the full control effect; potency is read from the fitted curve at half-maximal effect; tags tell the direction and shape of the fitted curve.

| Structure (SMILES) | Potency | activity, negative = inhibition |
| --- | --- | --- |
| CCCCC1CCC(/C(N)=N/O)CC1 (centres undefined) | inconclusive [inhibitor, partial curve, poor fit] |  |
| CCCNC(=O)NC(=O)CN1C(=O)NC(C)(c2ccc(C)cc2)C1=O (centres undefined) | inconclusive [inhibitor, single point] |  |
| Cc1[nH]nc(-c2ccc(O)c(C)c2O)c1-c1cnn(-c2ccccc2)c1 | inconclusive [inhibitor, single point] |  |
| C=C(CC1([C@@H](NP(=O)(c2ccccc2)c2ccccc2)[C@H]2C[C@@H]2CCCC)CC1)c1cccc(OC)c1 | inconclusive [inhibitor, single point] |  |
| O=c1cc(-c2ccc(O)cc2)oc2cccc(O)c12 | active: 3.98 µM |  |
| Cc1ccc2c(c1)N(CC(=O)N1CCCc3ccccc31)C(=O)C(C)O2 (centres undefined) | inconclusive [inhibitor, single point] |  |
| CCOC(=O)c1c(C)n(C)c2ccc(OCC(O)Cn3c(C)nc4ccccc43)cc12 (centres undefined) | inconclusive [inhibitor, partial curve] |  |
| C=C(C)CN=c1scc(C)n1/N=C/c1ccco1 | inconclusive [inhibitor, single point] |  |
| Cc1noc(C)c1COC(=O)c1ccc2c(c1)OCCO2 | inconclusive [inhibitor, partial curve] |  |
| COc1cc2c(cc1OC)-c1cc(NC3CCCC3)nc(=O)n1CC2 | inconclusive [inhibitor, partial curve] |  |
| COc1ccc(-c2csc(NCc3ccco3)n2)cc1 | inconclusive [inhibitor, single point] |  |
| Clc1ccccc1-c1nccc(-n2ccnc2)n1 | inconclusive [inhibitor, partial curve] |  |
| COC(=O)c1sc(NC(=O)C2CCCCC2C(=O)O)c(C(=O)OC)c1C (centres undefined) | inconclusive [inhibitor, single point] |  |
| COC(=O)c1oc2ccc(Br)cc2c1-n1cccc1 |  | inactive: 15.6% |
| CCOC(=O)c1ccc2[nH]c(C)cc(=O)c2c1 | inconclusive [inhibitor, full curve, poor fit] |  |
| Cc1cccc2cc(COC(=O)c3ccccn3)c(=O)[nH]c12 | inconclusive [inhibitor, single point] |  |
| Cc1ccc(C2CC(c3cccc(Cl)c3)n3nc(N)nc3N2)cc1 (centres undefined) | inconclusive [inhibitor, single point] |  |
| COc1c(O)cccc1O |  | inactive: 5.15% |
| S=c1[nH]ncc2ccccc12 | inconclusive [inhibitor, full curve, poor fit] |  |
| CCN1CCN(S(=O)(=O)c2cc(OCC(=O)NC3CCCCC3)c(C)cc2Cl)CC1 | inconclusive [inhibitor, single point] |  |
| CCN(CC)c1ccc2c(c1)C(=O)N(C)C2=O |  | inactive: 38.5% |
| CCOC(=O)N1CCC2(CC1)C(C#N)=C(N)Oc1n[nH]c(CSc3ccc(C)cc3)c12 | inconclusive [inhibitor, partial curve] |  |

| Structure (SMILES) | Potency | activity, negative = inhibition |
| --- | --- | --- |
| COC(=O)[C@@]1(Cc2ccc(OC)cc2)[C@H]2c3cc(C(=O)N4CCCC4)n(Cc4cc(F)cc5c4OCOC5)c3C[C@H]2CN1C(=O)c1ccccc1 |  | inactive: -3.74% |
| CC(C)c1nc(SCC(=O)N2CCCC2)c2ccccc2n1 | inconclusive [inhibitor, partial curve] |  |
| NC(=O)c1sc(=S)n(-c2ccc(Br)cc2)c1N | inconclusive [inhibitor, single point] |  |
| CCN1C(=O)[C@H]2[C@H]3[C@H](O)[C@H](O)C/C(=N/O[C@@H](C)c4cc(-c5c(C)cc(C)cc5C)no4)[C@@H]3CC[C@@H]2C1=O |  | inactive: 1.81% [at 11.5 µM] |
| c1ccc2c(NCCN3CCOCC3)nc(-c3ccc4c(c3)OCO4)nc2c1 | inconclusive [inhibitor, partial curve] |  |
| Cc1ccc(-c2nc3ncccc3o2)cc1NC(=O)c1cc2ccccc2o1 | inconclusive [inhibitor, full curve, poor fit] |  |
| COC(=O)C1=C(C)Nc2ccc(C)cc2S1 | inconclusive [inhibitor, partial curve] |  |
| COC(=O)NC(c1ccc(Cl)cc1)C(C(C)=O)C(=O)OC (centres undefined) |  | inactive: -0.541% [at 11.5 µM] |
| O=C(COc1ccc(Cl)cc1Cl)N1CCCCCC1 |  | inactive: -13.3% |
| CCC1=C(OC(=O)N(CC)CC)N2C(=O)OC(=NCCc3c[nH]c4ccccc34)[C@]2(Cc2ccccc2)[C@H]2C1=CC[C@H]1C(=O)N(C)C(=O)[C@H]12 | inconclusive [inhibitor, single point] |  |
| COc1ccc(C2=Nn3c(nnc3-c3ccc(OC)cc3)SC2)cc1 | active: 10 µM |  |
| COc1ccc(-c2nc3cnc(N4CCNCC4)nc3n(-c3ccc(OC)cc3)c2=O)cc1 |  | inactive: 41.9% |
| COc1ccc(-c2nc3ccccc3c(=O)n2CCCn2ccnc2)cc1 | inconclusive [inhibitor, single point] |  |
| Cc1ccc(C(C)C)c(OCc2nnc3n2CCCCC3)c1 | inconclusive [inhibitor, single point] |  |
| O=C(NC1(C(F)(F)F)NC(=O)N(C2CCCCC2)C1=O)c1cccs1 (centres undefined) | inconclusive [inhibitor, single point] |  |
| COc1ccc(-n2c(=O)c(-c3ccc(Cl)cc3)nc3cnc(N4CCNCC4)nc32)cc1 |  | inactive: -19.7% |
| CCCn1c(SCC(=O)c2ccc3c(c2)OCCO3)nnc1-c1ccco1 | inconclusive [inhibitor, single point] |  |
| COc1ccc(C(CNC(=O)c2cc(C)oc2C)N2CCOCC2)cc1 (centres undefined) |  | inactive: -0.498% |
| O=c1c(-c2nc3ccccc3o2)c2oc3ccccc3n2c2ccccc12 |  | inactive: -6.17% |
| O=C(O)C[C@H](Cc1ccccc1Cl)C(=O)O |  | inactive: 6.36% [at 11.5 µM] |
| O=C(NC1CCCCCCC1)C1CCN(S(=O)(=O)N2CCCC2)CC1 | inconclusive [inhibitor, single point] |  |
| COc1ccc(C2CC(c3ccccc3Cl)Nc3ncnn32)cc1OC (centres undefined) | inconclusive [inhibitor, single point] |  |
